Measured values: paper PMC4336329 (PLoS ONE, 2015)
Among all 310,000 compounds or so, about 2,200 (0.71%) showed an effect of 50% or more. Effects have a minus sign here. The list shows a part of the results.

What follows are compounds tested against human ether-à-go-go-related gene (hERG) potassium channel (human, UniProt Q12809) (assay: primary screen, population patch clamp on CHO cells stably expressing hERG).
Sequence of human ether-à-go-go-related gene (hERG) potassium channel (Q12809 whole entry, looked up): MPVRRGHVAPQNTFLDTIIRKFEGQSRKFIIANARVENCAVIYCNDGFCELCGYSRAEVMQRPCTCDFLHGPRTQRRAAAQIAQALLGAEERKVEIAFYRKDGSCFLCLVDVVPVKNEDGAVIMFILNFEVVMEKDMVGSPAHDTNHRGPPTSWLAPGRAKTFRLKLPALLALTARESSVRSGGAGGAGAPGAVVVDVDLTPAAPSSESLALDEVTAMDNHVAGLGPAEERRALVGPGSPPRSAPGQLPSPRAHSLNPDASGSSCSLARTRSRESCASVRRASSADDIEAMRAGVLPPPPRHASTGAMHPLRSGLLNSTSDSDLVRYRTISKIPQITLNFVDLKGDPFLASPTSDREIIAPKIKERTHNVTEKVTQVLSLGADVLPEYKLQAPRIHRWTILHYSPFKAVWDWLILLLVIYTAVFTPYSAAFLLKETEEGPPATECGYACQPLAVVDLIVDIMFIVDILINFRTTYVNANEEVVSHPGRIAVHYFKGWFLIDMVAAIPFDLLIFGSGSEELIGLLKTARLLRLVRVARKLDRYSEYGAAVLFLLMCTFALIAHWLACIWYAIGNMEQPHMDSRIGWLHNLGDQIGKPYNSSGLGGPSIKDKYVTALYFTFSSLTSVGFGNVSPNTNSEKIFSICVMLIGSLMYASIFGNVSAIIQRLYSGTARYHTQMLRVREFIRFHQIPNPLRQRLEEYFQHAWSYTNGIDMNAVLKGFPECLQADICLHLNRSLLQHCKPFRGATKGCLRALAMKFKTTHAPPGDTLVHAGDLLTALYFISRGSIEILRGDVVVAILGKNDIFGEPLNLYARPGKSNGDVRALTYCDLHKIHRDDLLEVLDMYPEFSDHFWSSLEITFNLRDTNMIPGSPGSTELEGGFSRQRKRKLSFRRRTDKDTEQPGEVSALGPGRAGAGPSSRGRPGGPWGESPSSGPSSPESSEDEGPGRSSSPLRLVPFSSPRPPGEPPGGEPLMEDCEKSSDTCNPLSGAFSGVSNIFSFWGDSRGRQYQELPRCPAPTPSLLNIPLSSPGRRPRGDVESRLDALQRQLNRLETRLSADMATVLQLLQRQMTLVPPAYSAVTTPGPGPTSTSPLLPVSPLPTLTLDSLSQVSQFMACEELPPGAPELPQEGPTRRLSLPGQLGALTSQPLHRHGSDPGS
For `CS(=O)(=O)c1ccc(Cl)c(NC(=O)COC(=O)Cc2c[nH]c3ccccc23)c1`, the “hERG current change (%, negative = inhibition) at 1uM” value was 5.09%. With `O=C(CCNC(=O)c1ccco1)Nc1ccc(Cl)cc1` the “hERG current change (%, negative = inhibition) at 1uM” value was 5.16%. `O=C(Nc1ccc2nc(-c3ccccn3)c(-c3ccccn3)nc2c1)N1CCOCC1` was tested, and the “hERG current change (%, negative = inhibition) at 1uM” value was 10.5%. For `O=C(COC(=O)c1ccc(S(=O)(=O)N2CCCC2)cc1)Nc1ccc(Cl)cc1`, the “hERG current change (%, negative = inhibition) at 1uM” value was 2.58%. For `Cc1cc2c(cc(C(=O)OC(C(=O)NC3CCCCC3)C(C)C)n2C)o1` (centres unmarked), the “hERG current change (%, negative = inhibition) at 1uM” value was 11.2%. With `CCCn1c(SCC(=O)Nc2cc(S(=O)(=O)N3CCOCC3)ccc2Cl)n[nH]c1=O` the “hERG current change (%, negative = inhibition) at 1uM” value was 7.54%. For `COc1cc(Br)cc(C2C3=C(CCCC3=O)N(c3ccc(F)cc3)C3=C2C(=O)CCC3)c1O`, the “hERG current change (%, negative = inhibition) at 1uM” value was 3.12%. `Cc1cc(C(=O)CSc2nnnn2-c2ccccc2)c(C)n1CCc1ccccc1` was tested, and the “hERG current change (%, negative = inhibition) at 1uM” value was 14.8%. In the case of `N=C1C(c2nc(-c3ccc(F)cc3)cs2)=C(O)CN1CCCN1CCOCC1`, the “hERG current change (%, negative = inhibition) at 1uM” value is reported as -1.21%. For `CCn1c(SCC(=O)Nc2cc(C)nn2-c2ccccc2)nnc1-c1cccs1`, the “hERG current change (%, negative = inhibition) at 1uM” value was 6.59%. With `COc1cccc(NC(=O)CN(C)C(=O)c2ccc(-c3ccc(Cl)cc3)o2)c1` the “hERG current change (%, negative = inhibition) at 1uM” value was 16.8%. `CCOC(=O)C1=Nc2ccccc2/C1=C\c1c(O)n(C)c(=O)n(C)c1=O` was tested, and the “hERG current change (%, negative = inhibition) at 1uM” value was 10%. For `CCN(CC)c1ccc(/C=C/c2ccc3ccc(OC)cc3[n+]2CC)cc1.[I-]`, the “hERG current change (%, negative = inhibition) at 1uM” value was -85%. `CC1(C)C(=O)OC(C(=O)c2ccccc2)C2(CCCCC2)C1=O` (centres unmarked) was tested, and the “hERG current change (%, negative = inhibition) at 1uM” value was 8.37%. For `Cc1ccc(/C=N/NC(=O)c2ccco2)cc1`, the “hERG current change (%, negative = inhibition) at 1uM” value was 12.6%. In the case of `COc1cccc(N2C(=NC(=O)C3CCCO3)SC3CS(=O)(=O)CC32)c1` (centres unmarked), the “hERG current change (%, negative = inhibition) at 1uM” value is reported as 10.6%. For `O=C(C1CCN(c2ncnc3c2nc2n3CCCCC2)CC1)N1CCN(c2ccc(F)cc2)CC1`, the “hERG current change (%, negative = inhibition) at 1uM” value was -3.19%. In the case of `Nc1cccc(-c2cnc3ccccc3n2)c1`, the “hERG current change (%, negative = inhibition) at 1uM” value is reported as 17.6%. `COc1ccc(CCNC(=O)c2cccc(C(=O)NCCc3ccc(OC)cc3)n2)cc1` was tested, and the “hERG current change (%, negative = inhibition) at 1uM” value was -1.57%. In the case of `CCC(=O)Nc1cccc(C2=NOC3(C2)C[C@@H](C(N)=O)N(C(=O)c2ccccc2C(=O)c2ccccc2)C3)c1` (some centres unmarked), the “hERG current change (%, negative = inhibition) at 1uM” value is reported as 6.86%. `Cc1nc(SCC(=O)NCc2ccco2)[nH]c(=O)c1C` was tested, and the “hERG current change (%, negative = inhibition) at 1uM” value was 16.9%. `COc1ccc(COC(=O)C2CCN(S(=O)(=O)c3ccc(F)cc3)CC2)cc1` was tested, and the “hERG current change (%, negative = inhibition) at 1uM” value was 4.6%. In the case of `O=S(=O)(Cc1ccccc1)NCC1CCCN(Cc2cccc3nonc23)C1` (centres unmarked), the “hERG current change (%, negative = inhibition) at 1uM” value is reported as -10.3%.
